The text below walks through data of the supplement of paper PMC11417369.

Some of the results follow.

This experiment has as its system PF3D7_0420300 AP2 domain 1 (GST-tagged). The experiment can be described thus: gcPBM binding intensity (ln(normalized median fluorescence intensity)); higher = stronger DNA binding. The method, boiled down:
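Binding intensity is defined as the maximum Masliner-normalised natural-log median intensity across replicate spots for either probe orientation. It was measured on an Agilent 4 × 180k array of primer-extended double-stranded 36-bp intergenic genomic probes and negative controls, to which GST-tagged P. falciparum DNA-binding domains made in E. coli were applied for 1 h in 1× PBS with 1% milk, 0.2 mg/ml BSA, 0.5% salmon testes DNA and 0.03% Triton X-100. Detection was by Alexa488 anti-GST antibody and scanning at 488 nm.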
With “TCATTCAAAAAAAATCAACACACAGTTACATAGCTC [CACACA_site8700]”, the “gcPBM binding intensity (ln)” value turned out to be 9.54.
In the case of “GTTTTTTTTATATATTGTACAAATAATATATTATAT [XGTACX_site29]” it was 9.42; in that of “TTTTAAAAAAAAAAAATAAATAAATAAGATATTATC [CACACA_negctrl_site1791]”, 8.91.
In the case of “TTTTAAAACTACATTGGTACACAATAAAAAAAAAAA [XGTACX_site2793]” it was 9.14.
As to “TCATATATATTATACACACACATATATAAATATATA [CACACA_site967]”, the “gcPBM binding intensity (ln)” value stood at 9.7.
Consider “AAAAAAAAAAAAAAAGCACACATATAAATATGAATA [CACACA_site8391]”, for which the “gcPBM binding intensity (ln)” value turned out to be 9.18.
With “AAATTTAAATAATGTGCGCATCTTAATATATATAAG [GTGCAC_site9890]” the figure was 9.19; with AAATAATATTGAAAAGTGCATATTTTTGTTGATATA, 9.1.
In the case of “TCTTATAACAAAAAAAAATAAAAAATAAAACTATAT [GTGCAC_negctrl_site11]” it was 9.28; in that of “CATATAAATAGACACACACACACATATAAATAAATA [CACACA_site7156]”, 10.3; in that of “TTTTCTATTTAATTGGTGCACTGATATATACACATA [GTGCAC_site9533]”, 9.26.
With “AGGTTAAAAATAAATACACACATTTGATGTCTGTAT [CACACA_site6596]” the figure was 9.49; with “TTATGTTATATATACACACACAAAAGAAAAAAAAAA [CACACA_site2987]”, 9.7.
For the sequence “ATATAACATATTAATAATATATTTATAATATGTTTA [GTGCAC_negctrl_site168]”, the “gcPBM binding intensity (ln)” value was 8.95.
With “TTTTGAGAATATATGGGTACAAATAAATAAAAATAT [XGTACX_site1933]” the figure was 9.26.
In the case of “AAAAAACATACATACACACACATAAATATATATATT [CACACA_site2699]” it was 10.1; in that of “ATATATATATAAAGGAGTACATACATTAAAAAAAAA [XGTACX_site1095]”, 9.42.
In the case of “TCTTATTTAAAAATAGCACACATTATATATATATAT [CACACA_site8916]” it was 9.15; in that of “TCCTTGTTTGGTTTTTTTTTTTCTTCTTTTTTTTTT [CACACA_negctrl_site1355]”, 9.78.
In the case of “ACACATACACATTAGGTGCACATAATTCAATATTAC [GTGCAC_site9862]”, the “gcPBM binding intensity (ln)” value was 9.49.
Turning to “TTAAATGTTATATATTGTACATATAATATATGTATT [XGTACX_site1492]”, the “gcPBM binding intensity (ln)” value is 9.23.
On to “TATGAAACGATATATGTGCACATGAGGGAATATAGA [GTGCAC_site9611]”, for which the “gcPBM binding intensity (ln)” value turned out to be 9.57.
Take “TATAAATCAATATGTACACACATATACATGTTGAAT [CACACA_site7460]”: the “gcPBM binding intensity (ln)” value turned out to be 9.33.
On to “TAATAAAAAAAGTGCACACACATAATATATATATAT [CACACA_site3340]”, for which the “gcPBM binding intensity (ln)” value was 9.65.
On to “TTAGCAACTATTACTACACACATTTTTATATAATTT [CACACA_site1372]”, for which the “gcPBM binding intensity (ln)” value came out at 9.64.
With “CATATAATATATCAATGTACATATATATTTTATAAA [XGTACX_site5901]” the figure was 9.11.
Take “ATTGTCAAAACACGCACACACATATACATAATAACA [CACACA_site1742]”: the “gcPBM binding intensity (ln)” value turned out to be 9.85.
With “ATTATATACATATATATTGTATATACTATACATATG [XGTACX_negctrl_site545]”, the “gcPBM binding intensity (ln)” value came to 9.29.
With “ATATATACCTATAACACACACATATTTATATTTATA [CACACA_site7257]” the figure was 9.78; with “TCATAGCTAGGATAACGTACAGAAAAGTGAAAAATT [XGTACX_site3322]”, 9.48.
In the case of “ACACATGTATTTGGTGCATGTTGTTAAAAAAATATT [TGCATGCA_site795]” it was 9.1.
On to “TTTTTTTTTTGTTGTTGTACTCTTATATTTTTATAT [XGTACX_site6178]”, for which the “gcPBM binding intensity (ln)” value was found to be 9.7.
With “ATTCTAGTAATATATGTATATTTATATATGTATGTG [XGTACX_negctrl_site419]” the figure was 9.36.
As to “GATCTATTGAGTGATACATGCAGGAAAATTAAAAAC [TGCATGCA_site729]”, the “gcPBM binding intensity (ln)” value is 9.24.
With “TATGTATGTATGTATGTATGCATGTCTAACACCTAA [TGCATGCA_site360]” the figure was 8.98.
In the case of “TTTTTTTTTTTATGCTCACACATTAATTTTTATACA [CACACA_site4527]” it was 9.38.
In the case of “AAAAAGAAAAAAGAAAGTACAAATATACACATTTTT [XGTACX_site3343]” it was 9.35; in that of “TTTTTATTATAAGGTCGTACAATTGTAATTATTGTA [XGTACX_site1413]”, 9.23; in that of “ATAAAAGATTTATACATACACACATATTATATTCAC [CACACA_site3714]”, 9.67.
Take “TTTTTTTTTTTTTTTTAACACACATATATATATTTT [CACACA_site8585]”: the “gcPBM binding intensity (ln)” value came out at 9.02.
In the case of “ATATATATGTATATAACATGCAACATTTAATAATAA [TGCATGCA_site1018]” it was 9.32; in that of “ATATAAATAAAGAAATATATATATATATATATATAT [GTGCAC_negctrl_site668]”, 9.09; in that of “AACGCTTATTAGTTGTTGTATATGTGTTCACATATT [CACACA_negctrl_site379]”, 9.37.
On to “AAAAAACACGGACACACACACATATACATACATACA [CACACA_site5470]”, for which the “gcPBM binding intensity (ln)” value was 10.1.
